Laboratory results: a collection of fitness landscapes (doi:10.1016/j.celrep.2020.107928)
Whole data set: some 81,000 sequences, median “one-hybrid fitness for binding NBS DNA” near -0.1, cut for the highest 2% near 0.36. The list shows a part of the results.

B1: Caulobacter ParB omega fusion; a variant is named by its letters at X, in order, B8GW30 (parent)
chain: MESVVVGEPGMSEGRRGLGRGLSALLGEVDAAPAQAPGEQLGGSREAPIEILQRNPDQPRRTFREEDLEDLSNSIREKGVLQPILVRPSPDTAGEYQIVAGERAWRAAQRAGLKTVPIMVRELDDLAVLEIGIIENVQRADLNVLEEALSYKVLMEKFERTQENIAQTIGKSXSHVANXMRLLXLPDEVQSYLVSGELTAXHARAIAAAADPVALAKQIIEGGLSVRETEALARKAPNLSAGKSKGGRPPRVKDTDTQALESDLSSVLGLDVSIDHRGSTGTLTITYATLEQLDDLCNRLTRGI

Variants of: B1
Test: one-hybrid fitness for binding NBS DNA (the Noc-binding site; scaled: cognate 1, non-cognate 0); higher = stronger binding
Details: with NBS DNA site
Outline: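 Values were rescaled so that cognate is 1 and non-cognate is 0. Each is a fitness, the log change in a variant's read ratio to wild type from Illumina reads of plasmids before and after selection, with three replicate libraries pooled and variants under 10 reads dropped. Selection of the Caulobacter ParB libraries, four specificity codons randomised, used E. coli USO with a HIS3 reporter, site 19 bp from the promoter, on M9-minus-histidine with 0.1 mM IPTG and 5 mM 3-AT for 48 hours at 37°C.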

Variant	one-hybrid fitness for binding NBS DNA
DFVC	≤ 0.2
CTHT	≤ 0.2
NPKR	0.24
ITPW	≤ 0.2
STCD	≤ 0.2
RQAG	≤ 0.2
RKRP	≤ 0.2
RHWK	≤ 0.2
RIFL	≤ 0.2
LTYI	≤ 0.2
SSVS	≤ 0.2
PGPL	≤ 0.2
EDLT	≤ 0.2
GQVY	≤ 0.2
GHCC	≤ 0.2
ERPS	≤ 0.2
YPKA	≤ 0.2
LKCH	≤ 0.2
SWWS	≤ 0.2
FALT	≤ 0.2
YFSM	≤ 0.2
ATGG	≤ 0.2
ADKC	≤ 0.2
GIER	≤ 0.2
ANTC	≤ 0.2

Variant	one-hybrid fitness for binding NBS DNA
TETY	≤ 0.2
YINT	≤ 0.2
YGPL	≤ 0.2
KSSG	≤ 0.2
DWTV	≤ 0.2
LNCS	≤ 0.2
PNKA	≤ 0.2
PAHR	≤ 0.2
ASSM	≤ 0.2
RERW	≤ 0.2
GPCS	≤ 0.2
DLPL	≤ 0.2
QSWD	≤ 0.2
LNTL	≤ 0.2
RDRL	≤ 0.2
NEHI	≤ 0.2
AQYT	≤ 0.2
KTSA	≤ 0.2
RLWV	≤ 0.2
WEIT	≤ 0.2
ICHG	≤ 0.2
NWQY	≤ 0.2
MRCC	≤ 0.2
PWAA	≤ 0.2
PYKH	≤ 0.2

Variant	one-hybrid fitness for binding NBS DNA
KSFT	≤ 0.2
EYSR	≤ 0.2
THTA	≤ 0.2
FRPR	≤ 0.2
APKW	≤ 0.2
NTSK	≤ 0.2
IYPT	≤ 0.2
GMHF	≤ 0.2
YWKN	≤ 0.2
RNRK	≤ 0.2
NRAY	≤ 0.2
QRWM	0.254
AMFA	≤ 0.2
AWTC	≤ 0.2
WTVP	≤ 0.2
HNMP	≤ 0.2
RYHF	≤ 0.2
QYHT	0.417
PEER	≤ 0.2
ICSR	≤ 0.2
SDIM	≤ 0.2
PVDI	≤ 0.2
LDSD	≤ 0.2
FHRK	≤ 0.2
TLWC	≤ 0.2

Variant	one-hybrid fitness for binding NBS DNA
SYKH	≤ 0.2
WENR	≤ 0.2
RRGG	0.245
DDYR	≤ 0.2
VLFT	≤ 0.2
KLGL	≤ 0.2
WLNP	≤ 0.2
ATRI	≤ 0.2
RADS	≤ 0.2
PLAF	≤ 0.2
YLRA	≤ 0.2
LYCR	≤ 0.2
PGED	≤ 0.2
HSVN	≤ 0.2
SFRG	≤ 0.2
AKMA	≤ 0.2
HTLH	≤ 0.2
DQEG	≤ 0.2
QHEG	≤ 0.2
PALV	≤ 0.2
REQT	≤ 0.2
QKFC	≤ 0.2
YVLI	≤ 0.2
WGRC	≤ 0.2
EDFV	≤ 0.2

Variant	one-hybrid fitness for binding NBS DNA
YSSI	≤ 0.2
YTSD	≤ 0.2
QRES	0.469
PSGC	≤ 0.2
VYCV	≤ 0.2
QIWY	≤ 0.2
SRGG	≤ 0.2
YSTG	≤ 0.2
WGIG	≤ 0.2
RHGY	≤ 0.2
STSG	≤ 0.2
NRIR	≤ 0.2
CYHT	≤ 0.2
NCQT	≤ 0.2
RTFF	≤ 0.2
RGKF	≤ 0.2
GINR	≤ 0.2
FWKY	≤ 0.2
RGSN	≤ 0.2
TQMS	≤ 0.2
GKMT	≤ 0.2
MRDG	≤ 0.2
RKTG	≤ 0.2
FTCS	≤ 0.2
NMKW	≤ 0.2

Variant	one-hybrid fitness for binding NBS DNA
ESAR	≤ 0.2
WWSR	≤ 0.2
HRDE	≤ 0.2
PWKR	≤ 0.2
TTMA	≤ 0.2
QKES	0.275
TKRK	≤ 0.2
MTDN	≤ 0.2
CTAL	≤ 0.2
KKFG	≤ 0.2
IVGT	≤ 0.2
SCPC	≤ 0.2
WNIP	≤ 0.2
SHDL	≤ 0.2
TMQG	≤ 0.2
SYKI	≤ 0.2
QLMM	≤ 0.2
QQMP	≤ 0.2
KYRK	≤ 0.2
VAKP	≤ 0.2
HHPP	≤ 0.2
SLFR	≤ 0.2
CCPD	≤ 0.2
SRRM	≤ 0.2
QLSY	≤ 0.2

Variant	one-hybrid fitness for binding NBS DNA
TKTH	≤ 0.2
RSRL	≤ 0.2
NTQA	≤ 0.2
AFNT	≤ 0.2
DITP	≤ 0.2
QMRD	0.277
KRIS	0.308
DSKR	≤ 0.2
QANM	≤ 0.2
WVRF	≤ 0.2
TTAK	≤ 0.2
FHGR	≤ 0.2
QKKD	0.211
PSVK	≤ 0.2
ITTR	≤ 0.2
SRIR	≤ 0.2
CTLG	≤ 0.2
SDAI	≤ 0.2
RVVL	≤ 0.2
CCAS	≤ 0.2
MRDY	≤ 0.2
ISCR	≤ 0.2
AEVH	≤ 0.2
RVSP	≤ 0.2
LCHL	≤ 0.2

Variant	one-hybrid fitness for binding NBS DNA
HKWV	≤ 0.2
IHPT	≤ 0.2
MEVV	≤ 0.2
RNVI	≤ 0.2
VHYR	≤ 0.2
RLLH	≤ 0.2
CRQL	≤ 0.2
LVPE	≤ 0.2
LKDF	≤ 0.2
PYRS	≤ 0.2
SELS	≤ 0.2
NRKS	≤ 0.2
RFGL	≤ 0.2
SWFR	≤ 0.2
YQLS	≤ 0.2
MEFS	≤ 0.2
PCAF	≤ 0.2
PQPC	≤ 0.2
QMRW	0.288
MSCG	≤ 0.2
